The values that follow come from the BET-seq Pho4 binding data (Le et al. 2018).

Some of the results follow. Values were computed here from the reads of four pooled replicates and scatter widely.

The assay concerns the target T1, Pho4 (S. cerevisiae) (UniProt P07270).
T1 sequence: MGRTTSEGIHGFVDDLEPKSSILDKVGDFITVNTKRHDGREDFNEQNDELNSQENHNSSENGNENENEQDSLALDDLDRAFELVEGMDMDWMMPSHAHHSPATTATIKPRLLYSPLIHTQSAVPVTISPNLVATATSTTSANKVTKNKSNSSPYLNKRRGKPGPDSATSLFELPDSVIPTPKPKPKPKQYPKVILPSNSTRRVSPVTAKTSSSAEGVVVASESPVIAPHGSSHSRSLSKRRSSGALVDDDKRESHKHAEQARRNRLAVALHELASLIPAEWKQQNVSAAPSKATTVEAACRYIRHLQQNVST
The assay is described as follows: relative binding free energy (BET-seq); higher = weaker binding. The note with it: reference: library average.
As for TTAAACACGTGCGGGG, the “relative binding free energy” value is -0.711 kJ/mol.

For the sequence GTGTTCACGTGAGGGC, the “relative binding free energy” value was 2.22 kJ/mol.

As to TGGGTCACGTGTTTAA, the “relative binding free energy” value is 0.92 kJ/mol.

For the sequence ATGTGCACGTGATATA, the “relative binding free energy” value was 0 kJ/mol.

Consider ATAAGCACGTGTTTGT, for which the “relative binding free energy” value is -0.669 kJ/mol.

In the case of TGTGTCACGTGAGAAT, the “relative binding free energy” value stood at 1.34 kJ/mol.

Take GTCTTCACGTGGGCTT: the “relative binding free energy” value amounted to 0.962 kJ/mol.

Regarding CTTTTCACGTGAAAGT, the “relative binding free energy” value was 1.42 kJ/mol.

For TCGTGCACGTGGGCTA, the “relative binding free energy” value is -0.962 kJ/mol.

With CGGTGCACGTGGGAGC, the “relative binding free energy” value was -0.335 kJ/mol.

Consider TCATACACGTGTTCGT, for which the “relative binding free energy” value turned out to be 0.335 kJ/mol.

AGATGCACGTGGCTTG: the “relative binding free energy” value is -0.628 kJ/mol.

With CAGTTCACGTGTGGAT, the “relative binding free energy” value was 1.59 kJ/mol.

TGTCGCACGTGAGAGG: the “relative binding free energy” value amounted to 0.126 kJ/mol.

For the sequence AGCTACACGTGGTTGG, the “relative binding free energy” value came to 0.335 kJ/mol.

For the sequence TTGAGCACGTGGCGGA, the “relative binding free energy” value was -0.92 kJ/mol.

Turning to TTTAACACGTGGAAGG, the “relative binding free energy” value is 1.09 kJ/mol.

As for TACGGCACGTGGTGCG, the “relative binding free energy” value is -1.09 kJ/mol.

Turning to ATTGGCACGTGTAAAG, the “relative binding free energy” value was determined as 0.126 kJ/mol.

As for CGGGTCACGTGTTGCT, the “relative binding free energy” value turned out to be 0.377 kJ/mol.

GAGGACACGTGGTGAG: the “relative binding free energy” value stood at 1.09 kJ/mol.

Regarding ACTGTCACGTGGTTTG, the “relative binding free energy” value came out at 0.209 kJ/mol.

Turning to TAGATCACGTGATCTG, the “relative binding free energy” value came out at 1.55 kJ/mol.

Take GGCGTCACGTGGAGGT: the “relative binding free energy” value is -0.0418 kJ/mol.

Regarding TGCGCCACGTGAAGGG, the “relative binding free energy” value amounted to 0.46 kJ/mol.

ATGCGCACGTGAAGGA: the “relative binding free energy” value worked out at 0.879 kJ/mol.

On to GGTAGCACGTGGCGGT, for which the “relative binding free energy” value was -0.293 kJ/mol.

In the case of CTGGTCACGTGGTGCA, the “relative binding free energy” value was -0.209 kJ/mol.

In the case of GCGTGCACGTGAGTTG, the “relative binding free energy” value stood at 1.51 kJ/mol.

Regarding TAGGTCACGTGCTGTT, the “relative binding free energy” value is 0.586 kJ/mol.

Turning to AAGAACACGTGTGTTA, the “relative binding free energy” value is 0.628 kJ/mol.

As for GGACGCACGTGGTTAG, the “relative binding free energy” value is -0.962 kJ/mol.

TAGGTCACGTGGTACG: the “relative binding free energy” value amounted to 0.251 kJ/mol.

ATTCACACGTGGTGAG: the “relative binding free energy” value was determined as 0.335 kJ/mol.

With CGTGCCACGTGTGGTA, the “relative binding free energy” value is -0.0837 kJ/mol.

Turning to TGGCACACGTGGTGTA, the “relative binding free energy” value is -0.795 kJ/mol.

For the sequence TGTAACACGTGAGTTG, the “relative binding free energy” value is 1.21 kJ/mol.

Take GTAGTCACGTGGGGGT: the “relative binding free energy” value was found to be 0.167 kJ/mol.

Take GAATGCACGTGCTTGG: the “relative binding free energy” value was -0.0837 kJ/mol.

As to TTGGTCACGTGGTAAG, the “relative binding free energy” value amounted to 0.628 kJ/mol.

As to TTTGTCACGTGAGGCT, the “relative binding free energy” value was determined as 1.51 kJ/mol.

As to TTGTCCACGTGGTAGT, the “relative binding free energy” value was -0.669 kJ/mol.

As to CTGTTCACGTGCTTAG, the “relative binding free energy” value worked out at 1.3 kJ/mol.

Turning to TTGAGCACGTGAAGTG, the “relative binding free energy” value was found to be 0.586 kJ/mol.

In the case of AGTCTCACGTGACGTG, the “relative binding free energy” value was found to be 1.76 kJ/mol.

Regarding GTGGTCACGTGGATAA, the “relative binding free energy” value worked out at 1 kJ/mol.

Take GAGTTCACGTGTGTCG: the “relative binding free energy” value was determined as 1 kJ/mol.

Turning to AGAAGCACGTGTATGT, the “relative binding free energy” value was -0.0418 kJ/mol.

For the sequence GGGGTCACGTGTTTGC, the “relative binding free energy” value is 0.377 kJ/mol.

As to TAATTCACGTGTATGC, the “relative binding free energy” value turned out to be 1.13 kJ/mol.

For the sequence TTGTTCACGTGCTTAG, the “relative binding free energy” value was determined as 0.418 kJ/mol.

For TCGTCCACGTGGTGTT, the “relative binding free energy” value was -0.544 kJ/mol.

Take ATACTCACGTGGAGGT: the “relative binding free energy” value was 0.46 kJ/mol.

As to GTGCGCACGTGGTGGT, the “relative binding free energy” value is -0.502 kJ/mol.

Consider AGATGCACGTGGGGTG, for which the “relative binding free energy” value is -0.46 kJ/mol.

For the sequence CAGGTCACGTGGACAG, the “relative binding free energy” value was 1.13 kJ/mol.

For GTTGACACGTGGTGAT, the “relative binding free energy” value is -0.209 kJ/mol.

For the sequence TGATACACGTGGTATG, the “relative binding free energy” value is -0.377 kJ/mol.

On to GCGAGCACGTGGTTTG, for which the “relative binding free energy” value is -0.544 kJ/mol.

For ATGGTCACGTGTACGA, the “relative binding free energy” value worked out at 0.628 kJ/mol.

Take TCGTGCACGTGAGTAG: the “relative binding free energy” value was found to be 1.05 kJ/mol.

Regarding CTTTTCACGTGGATGG, the “relative binding free energy” value came out at 1 kJ/mol.

For GTGGTCACGTGTCGAT, the “relative binding free energy” value was 0.92 kJ/mol.

On to AATAGCACGTGAGTGA, for which the “relative binding free energy” value was found to be 0.795 kJ/mol.

With GGATCCACGTGCGGTT, the “relative binding free energy” value was 0.795 kJ/mol.

In the case of AGCGTCACGTGGCTGT, the “relative binding free energy” value worked out at 0.0418 kJ/mol.

Turning to TTGATCACGTGCTGTG, the “relative binding free energy” value is 0.293 kJ/mol.

Take TGTTGCACGTGATAAT: the “relative binding free energy” value stood at 0.418 kJ/mol.

On to TATTGCACGTGAGTTG, for which the “relative binding free energy” value was 1.09 kJ/mol.

Take AGAGTCACGTGACTTT: the “relative binding free energy” value was found to be 1.51 kJ/mol.

Consider TTAGTCACGTGAGGGA, for which the “relative binding free energy” value stood at 1.34 kJ/mol.

With CCGGGCACGTGGAGGG, the “relative binding free energy” value is -0.753 kJ/mol.

AGCGTCACGTGTGGCT: the “relative binding free energy” value is 0.126 kJ/mol.

As for TAATTCACGTGATGAG, the “relative binding free energy” value was 1.38 kJ/mol.

For AGGTTCACGTGATGGT, the “relative binding free energy” value turned out to be 1.51 kJ/mol.

For GTAGGCACGTGGTAGA, the “relative binding free energy” value is -0.753 kJ/mol.

With GTTGTCACGTGTAAGA, the “relative binding free energy” value was 1.26 kJ/mol.

Turning to GTGTGCACGTGTAATA, the “relative binding free energy” value was determined as 0 kJ/mol.

For ATTGACACGTGGGGCG, the “relative binding free energy” value is -0.502 kJ/mol.

CGAATCACGTGAGTGG: the “relative binding free energy” value was 1 kJ/mol.

Take AGTTTCACGTGTGTCG: the “relative binding free energy” value worked out at 0.837 kJ/mol.

Turning to CATTGCACGTGGGAAG, the “relative binding free energy” value was found to be 0.0837 kJ/mol.

For the sequence GGGCGCACGTGAGCGG, the “relative binding free energy” value came out at 0 kJ/mol.

Turning to TTGCACACGTGGGTTG, the “relative binding free energy” value was -1.05 kJ/mol.

TTGTTCACGTGGATGC: the “relative binding free energy” value is 1 kJ/mol.

For TTTAGCACGTGCGAGA, the “relative binding free energy” value is -0.126 kJ/mol.

With TTGGCCACGTGTGGGT, the “relative binding free energy” value was -0.209 kJ/mol.

As to TCATGCACGTGTTGCT, the “relative binding free energy” value stood at 0.126 kJ/mol.

As for ATTTCCACGTGAAGGG, the “relative binding free energy” value is 0.962 kJ/mol.

In the case of TGAATCACGTGAAGGG, the “relative binding free energy” value came to 0.669 kJ/mol.

For the sequence CGTATCACGTGAGCGG, the “relative binding free energy” value was found to be 0.92 kJ/mol.

For the sequence TATACCACGTGGGATT, the “relative binding free energy” value is -0.126 kJ/mol.

For the sequence AGGCACACGTGTGTTA, the “relative binding free energy” value stood at 0.377 kJ/mol.

Consider TTCGACACGTGTATTG, for which the “relative binding free energy” value amounted to 0.711 kJ/mol.

For GGTGGCACGTGCATGG, the “relative binding free energy” value is -0.586 kJ/mol.

With TATGGCACGTGGTCTT, the “relative binding free energy” value is -0.753 kJ/mol.

As for TATTTCACGTGCGTCG, the “relative binding free energy” value turned out to be 0.962 kJ/mol.

Consider CAAGTCACGTGGAGAG, for which the “relative binding free energy” value worked out at 0.837 kJ/mol.

For the sequence GGAGTCACGTGGGGGC, the “relative binding free energy” value turned out to be 0.0837 kJ/mol.

In the case of TTGGACACGTGTTGGT, the “relative binding free energy” value was determined as 0.46 kJ/mol.

On to AGGTGCACGTGCTTTT, for which the “relative binding free energy” value is -0.92 kJ/mol.

On to GGTTACACGTGAGGTC, for which the “relative binding free energy” value is 1.38 kJ/mol.

On to TTGGACACGTGTTGGG, for which the “relative binding free energy” value is 0.418 kJ/mol.

For the sequence TGTGGCACGTGCGCGT, the “relative binding free energy” value was -1.3 kJ/mol.

AAGTGCACGTGTAGAT: the “relative binding free energy” value was 0.879 kJ/mol.

Turning to TAGTCCACGTGTGTTT, the “relative binding free energy” value was found to be 0.753 kJ/mol.

As for AATCTCACGTGATGTT, the “relative binding free energy” value amounted to 1.13 kJ/mol.

On to TGAGCCACGTGAGTTG, for which the “relative binding free energy” value stood at 0.628 kJ/mol.

For the sequence AAGGACACGTGTGGAG, the “relative binding free energy” value was determined as 0.251 kJ/mol.

Consider CAGTTCACGTGTTGTC, for which the “relative binding free energy” value stood at 1.26 kJ/mol.

For CGAGGCACGTGTATGG, the “relative binding free energy” value was -0.879 kJ/mol.

For the sequence AGGGTCACGTGTAGGG, the “relative binding free energy” value is 0.544 kJ/mol.

On to GATTACACGTGAAGTT, for which the “relative binding free energy” value was 2.26 kJ/mol.

As to AGTTCCACGTGAGCGT, the “relative binding free energy” value stood at 0.962 kJ/mol.

As to TTTTACACGTGTGCTG, the “relative binding free energy” value was determined as 0.377 kJ/mol.
